Sequences and labels used below:
B1: PhoQ; a variant is named by its letters at X, in order, P23837 (parent)
chain: MKKLLRLFFPLSLRVRFLLATAAVVLVLSLAYGMVALIGYSVSFDKTTFRLLRGESNLFYTLAKWENNKLHVELPENIDKQSPTMTLIYDENGQLLWAQRDVPWLMKMIQPDWLKSNGFHEIEADVNDTSLLLSGDHSIQQQLQEVREDDDDAEMTHSVAVNVYPATSRMPKLTIVVVDTIPVELKSSYMVWSWFIYVLSANLLLVIPLLWVAAWWSLRPIEALAKEVRELEEHNRELLNPATTRELTSLVRNLNRLLKSERERYDKYRTTLTDLTHSLKTPLXXLQXXLRSLRSEKMSVSDAEPVMLEQISRISQQIGYYLHRASMRGGTLLSRELHPVAPLLDNLTSALNKVYQRKGVNISLDISPEISFVGEQNDFVEVMGNVLDNACKYCLEFVEISARQTDEHLYIVVEDDGPGIPLSKREVIFDRGQRVDTLRPGQGVGLAVAREITEQYEGKIVAGESMLGGARMEVIFGRQHSAPKDE

The other results are listed elsewhere or left out.

This assay covers variants of B1. As to the kind of experiment: enrichment ratio after two sorts for PhoP signalling (ratio (wild type AVST 3.29)); higher = more functional. The note with it: with PhoP (E. coli).
On to GIRM, for which the enrichment ratio is at most 0.25.
For ETIW the value was at most 0.25.
For MLNS the value was at most 0.25; for NAEH, at most 0.25.
The value for KDDI was at most 0.25.
On to ADVS, for which the enrichment ratio was at most 0.25.
The value for VKIN was at most 0.25; that for AQCR was at most 0.25; that for LVDH was at most 0.25.
For LDTR the value was at most 0.25; for HAML, 5.58; for TIWE, at most 0.25.
For WAHM the value was at most 0.25; for LYAY, at most 0.25; for EVAQ, at most 0.25.
In the case of PCLT, the enrichment ratio was at most 0.25.
The value for ICQR was at most 0.25; that for RCDK was at most 0.25.
The value for SQQA was at most 0.25; that for MVIT was at most 0.25.
IMWF: the enrichment ratio was at most 0.25.
Regarding APKG, the enrichment ratio was at most 0.25.
Consider NGIS, for which the enrichment ratio is at most 0.25.
For NHSE the value was at most 0.25; for VYGL, at most 0.25.
For YYPF the value was at most 0.25; for EYMM, at most 0.25.
Take ICPR: the enrichment ratio was at most 0.25.
For VPIS the value was at most 0.25.
For IPSG the value was at most 0.25; for NICA, at most 0.25.
In the case of TWHL, the enrichment ratio was at most 0.25.
The value for APNT was at most 0.25; that for PICL was at most 0.25.
For FKVW the value was at most 0.25.
For YEDP the value was at most 0.25; for MRYH, at most 0.25.
Regarding VPGS, the enrichment ratio is at most 0.25.
The value for DAQW was at most 0.25; that for CCFK was at most 0.25; that for DIQN was at most 0.25.
The value for RFWN was at most 0.25.
The value for PPAR was at most 0.25; that for SENE was at most 0.25.
As for IAWQ, the enrichment ratio was at most 0.25.
The value for KACS was at most 0.25; that for ATHV was at most 0.25.
With TSAH, the enrichment ratio was 8.44.
For NART the value was at most 0.25; for FGAC, at most 0.25.
For NIYF the value was at most 0.25.
The value for FLLG was at most 0.25; that for IHIH was at most 0.25; that for ELRS was at most 0.25.
Take FRWI: the enrichment ratio was at most 0.25.
The value for QCPC was at most 0.25; that for WFYS was at most 0.25.
The value for REAW was at most 0.25; that for VYSC was at most 0.25.
For ETSW the value was at most 0.25; for YHRN, at most 0.25.
Take KSTI: the enrichment ratio was at most 0.25.
For RDDN the value was at most 0.25.
In the case of DPWW, the enrichment ratio is at most 0.25.
The value for WATD was at most 0.25; that for MASR was at most 0.25; that for AHRH was at most 0.25.
The value for NPAL was at most 0.25; that for SHGW was at most 0.25; that for DRCP was at most 0.25.
For YWVS the value was at most 0.25; for AMSD, at most 0.25.
Regarding VWGM, the enrichment ratio was at most 0.25.
The value for ITIG was at most 0.25.
Turning to TYRR, the enrichment ratio is at most 0.25.
The value for TKCN was 2.43.
As for FNWS, the enrichment ratio was at most 0.25.
The value for SEFK was at most 0.25.
The value for NRAV was at most 0.25; that for TLQN was 1.7; that for AYRQ was at most 0.25.
The value for ATKS was at most 0.25; that for PSLT was at most 0.25; that for VEIM was at most 0.25.
In the case of WVWC, the enrichment ratio is at most 0.25.
For PVDV the value was at most 0.25; for ARIN, at most 0.25.
The value for RLKD was at most 0.25; that for KEHS was at most 0.25; that for SGWV was at most 0.25.
As for IDDL, the enrichment ratio is at most 0.25.
As to SYWN, the enrichment ratio was at most 0.25.
As for RKVA, the enrichment ratio is at most 0.25.
The value for LSYQ was 4.49.
The value for GHVH was at most 0.25; that for HASN was at most 0.25.
The value for AFTN was at most 0.25; that for EEGR was at most 0.25; that for RQTC was at most 0.25.
QWLS: the enrichment ratio is at most 0.25.
The value for RDPC was at most 0.25; that for EQAI was at most 0.25.
For FKYR the value was at most 0.25; for HVGK, at most 0.25.
Regarding FERC, the enrichment ratio was at most 0.25.
For QYAA the value was at most 0.25; for KAWK, at most 0.25.
In the case of NMTD, the enrichment ratio is at most 0.25.
For FNKP the value was 1.27.
With TLFI, the enrichment ratio was at most 0.25.
For MKKL the value was at most 0.25; for NFVQ, at most 0.25; for VWQG, at most 0.25.
For AEDP the value was at most 0.25; for YLWS, at most 0.25.
The value for CTCH was at most 0.25; that for QSHL was 13.5.
In the case of RVVI, the enrichment ratio was at most 0.25.
For DYPE the value was at most 0.25; for DRWS, at most 0.25.
For LRNC the value was at most 0.25; for ACKW, at most 0.25.
On to VFAN, for which the enrichment ratio is at most 0.25.
For APRQ the value was at most 0.25; for GHAK, at most 0.25; for RRLT, at most 0.25.
For SSAY the value was 7.87; for VEEW, at most 0.25; for RSAQ, at most 0.25.
For WRSY the value was at most 0.25.
In the case of ANEW, the enrichment ratio was at most 0.25.
For YGKE, the enrichment ratio was at most 0.25.
On to NAVM, for which the enrichment ratio is at most 0.25.
Turning to QDVD, the enrichment ratio is at most 0.25.
For LEAT the value was 4.6; for ELMS, at most 0.25.
The value for TQMK was at most 0.25; that for WVIM was at most 0.25; that for WCNP was at most 0.25.
The value for TTKN was at most 0.25; that for HPNA was at most 0.25.
Turning to VVFF, the enrichment ratio is at most 0.25.
For TQNF the value was 5.58.
The value for NPCV was at most 0.25.
Take VMHP: the enrichment ratio was at most 0.25.
The value for PCQA was at most 0.25; that for GLHI was at most 0.25; that for MQIC was at most 0.25.
On to LVSI, for which the enrichment ratio was at most 0.25.
The value for TQMR was at most 0.25.
For DPNV the value was at most 0.25; for LMVV, at most 0.25; for DTML, at most 0.25.
For AQEV the value was at most 0.25.
On to PALG, for which the enrichment ratio is at most 0.25.
On to ILLM, for which the enrichment ratio was at most 0.25.
AIFA: the enrichment ratio is at most 0.25.
For SWGG the value was at most 0.25; for NYTE, at most 0.25; for TQVR, at most 0.25.
With NKMF, the enrichment ratio is at most 0.25.
As to NNSG, the enrichment ratio was at most 0.25.
The value for QCWY was 5.67.
For REHF the value was at most 0.25; for NRAR, at most 0.25.
On to YGAV, for which the enrichment ratio is at most 0.25.
The value for KGKS was at most 0.25.
For TTDY the value was 2.19; for IVLD, at most 0.25.
The value for MLSS was at most 0.25; that for RSGH was at most 0.25.
Take VPGK: the enrichment ratio was at most 0.25.
Turning to DHKG, the enrichment ratio is at most 0.25.
For QEDS the value was at most 0.25.
For WNQV the value was at most 0.25.
The value for GREP was at most 0.25.
As to WLMR, the enrichment ratio was at most 0.25.
For MDWI the value was at most 0.25; for GGQR, at most 0.25; for WVTH, at most 0.25.
The value for FKGK was at most 0.25.
For MGGN the value was at most 0.25.
As for PIQW, the enrichment ratio was at most 0.25.
For WWEF, the enrichment ratio was at most 0.25.
With KEIV, the enrichment ratio was at most 0.25.
MYII: the enrichment ratio was at most 0.25.
As for TTQE, the enrichment ratio was 5.96.
For CLYF the value was at most 0.25; for DWMN, at most 0.25; for WMMC, at most 0.25.
With ISSD, the enrichment ratio is at most 0.25.
The value for SYKV was at most 0.25; that for PLNL was at most 0.25; that for AAGW was at most 0.25.
For MPPG the value was at most 0.25.

Values taken from a collection of fitness landscapes (doi:10.1126/science.1257360).
